Drawing on publication PMC7819943, “Rice protein-binding microarrays: a tool to detect cis-acting elements near promoter regions in rice”, this text covers binding signal for 54 sequences.

The other results are listed elsewhere or left out.

The test deals with T1, OsWOX13 (Oryza sativa, UniProt Q5QMM3 1-267).
T1 sequence: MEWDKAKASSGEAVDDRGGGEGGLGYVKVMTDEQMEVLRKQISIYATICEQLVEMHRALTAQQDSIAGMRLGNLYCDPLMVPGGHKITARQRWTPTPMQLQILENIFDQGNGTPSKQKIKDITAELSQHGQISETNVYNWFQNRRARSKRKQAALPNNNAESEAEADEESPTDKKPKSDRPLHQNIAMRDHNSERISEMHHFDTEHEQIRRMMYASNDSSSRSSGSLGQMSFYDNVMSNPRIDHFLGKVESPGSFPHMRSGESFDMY
Nature of the test: protein-binding microarray (RPBM); PBS, 2% BSA, 51.3 ng/ul salmon testes DNA, 50 uM zinc acetate, 200 nM TF, 25 C, 1 h; high values mean tight binding. Particulars: protein: recombinant; tags: N-terminal polyhistidine and DsRed monomer fusion (pET32a); label: CyDye5-dUTP incorporated in the synthesized complementary strand; 3' TTTTT single-stranded linker to array surface; dsDNA, one strand shown. Put shortly: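 Transcription factors were each fused at the N-terminus to a polyhistidine tag plus DsRed and expressed in E. coli BL21-CodonPlus before Ni–NTA purification. Binding to a double-stranded custom Agilent array was carried out with 200 nM protein at 25 °C for 1 h in PBS, 2% BSA, salmon testes DNA and 50 µM zinc acetate. The binding signal is per-feature fluorescence intensity, in arbitrary units, on an Axon 4000B scanner.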
Take “GTGATGGAGGGGTGATGTGATGGGGCGTAGAATGATATACCGGAGTCACCTAGTGCAG”: the binding signal is 8280 fluorescence intensity (a.u.). As for “AGATTAATTAGGATCAAAAGATTCGTCTCGCGGTTTTCAGCGGAGTCACCTAGTGCAG”, the binding signal is 18800 fluorescence intensity (a.u.).

“TAAAAGATAATTATTGTAACAAGATCTTAAATATCTTAGACGGAGTCACCTAGTGCAG”: the binding signal was 6770 fluorescence intensity (a.u.). The value for “AGTAATTAGTATGACCACCCTAATATACGGTAGTATGGTACGGAGTCACCTAGTGCAG” was 27200 fluorescence intensity (a.u.); that for “TGGATTGGATTGGATTGGGTTTCTGTGTGTGGAGGTGTGTCGGAGTCACCTAGTGCAG” was 45800 fluorescence intensity (a.u.). As to “ACCCTCCAAATAAATTGGAGGAAATTAAATTAGGAGGCTTCGGAGTCACCTAGTGCAG”, the binding signal was 14900 fluorescence intensity (a.u.). The figure for “TTCATTCATGTTAATAGATTTAAATAATAAGGCTCAGATCCGGAGTCACCTAGTGCAG” is 3260 fluorescence intensity (a.u.); for “TCTATAAATTGAACATGTTTCAAACCAGGCTTGCAAGTTGCGGAGTCACCTAGTGCAG” it is 15500 fluorescence intensity (a.u.). Consider “CGAGCTTAATTTGCTTAAACTAGTGCTGGCTCCCTCGGATCGGAGTCACCTAGTGCAG”, for which the binding signal is 19100 fluorescence intensity (a.u.). The value for “AAACTCCTAATTAAGTTATCCTGACTCCATTGGAAAGAGTCGGAGTCACCTAGTGCAG” was 5630 fluorescence intensity (a.u.); that for “TACTTGCTCGATTAGTTTATTAATTAATGCCCTAATCATCCGGAGTCACCTAGTGCAG” was 10600 fluorescence intensity (a.u.); that for “CCAATTTTCAATCAGTACTATCATGGAGACGACTTCCATACGGAGTCACCTAGTGCAG” was 15300 fluorescence intensity (a.u.). Take “GAAATAATTATACTAAATCCAGATGTTGCATGCATGATACCGGAGTCACCTAGTGCAG”: the binding signal was 11400 fluorescence intensity (a.u.). With “AGTTAACGGCGTTAACTGTATACCCCGCGAGACAATGACACGGAGTCACCTAGTGCAG”, the binding signal was 4080 fluorescence intensity (a.u.). Turning to “AGCCCGTTCAATTAAGCTTGGCCACACATCCTGGCCCAACCGGAGTCACCTAGTGCAG”, the binding signal is 3210 fluorescence intensity (a.u.). Regarding “ACCTTATGAACTTATTAAGATTGATTTGTAGGTGGCGGAGCGGAGTCACCTAGTGCAG”, the binding signal was 16900 fluorescence intensity (a.u.).

As to “GTGAAAATTATTATCATTCCATTTATTTCCATTATGTAATCGGAGTCACCTAGTGCAG”, the binding signal is 13300 fluorescence intensity (a.u.). As for “TACCCATCTGGCTTACACTAATTGAACAGACAAGTGGCCGCGGAGTCACCTAGTGCAG”, the binding signal is 9560 fluorescence intensity (a.u.). The value for “TTCTAATTCGGACTGACAGAGTACTATAATATTCATTCAACGGAGTCACCTAGTGCAG” was 4760 fluorescence intensity (a.u.); that for “CATAGAGAACAAATTAATTAATCGTACCATTATTCAAAATCGGAGTCACCTAGTGCAG” was 4160 fluorescence intensity (a.u.). The figure for “GCTAACTTTGAATCAGAGGTTAATTACCTGAAGAAGTCCTCGGAGTCACCTAGTGCAG” is 15400 fluorescence intensity (a.u.); for “TTGATTTAATTACCTTGACCACTCAGTATATGATTAGTAACGGAGTCACCTAGTGCAG” it is 27300 fluorescence intensity (a.u.); for “TTTAATTTGAAGAGAAATGGGTGGAAATTTGTCAGCCATGCGGAGTCACCTAGTGCAG” it is 26800 fluorescence intensity (a.u.).

Turning to “TGAAACATAACTAAATTAGTCATGGAAGAAACTGCTGTTACGGAGTCACCTAGTGCAG”, the binding signal was 9330 fluorescence intensity (a.u.). Consider “GGGATGGATTAATACATTTCGGATGGTTAATCAAACGATGCGGAGTCACCTAGTGCAG”, for which the binding signal is 4120 fluorescence intensity (a.u.). The value for “GAATCCGCTATATACCCTCTCTTCCACCCGCGCCACCCACCGGAGTCACCTAGTGCAG” was 3150 fluorescence intensity (a.u.); that for “GTGATGTGATGTGATGGAAAGTTTAGAGTTTTAGATCACCCGGAGTCACCTAGTGCAG” was 17400 fluorescence intensity (a.u.); that for “GAATAACAGACATATCATATTTGTTGCCTCCTGGTGGCTACGGAGTCACCTAGTGCAG” was 7840 fluorescence intensity (a.u.). The figure for “CCAATCAATCCTGCTACTGCTCATAAAATGGTTTCCCATTCGGAGTCACCTAGTGCAG” is 9000 fluorescence intensity (a.u.); for “TATGATTTTGAAAGAAACTGCAGCTAACATAAACTCTCCTCGGAGTCACCTAGTGCAG” it is 17400 fluorescence intensity (a.u.); for “TAATTACAATTAGCGGATGACATTGTAATCGTTCGATATGCGGAGTCACCTAGTGCAG” it is 7120 fluorescence intensity (a.u.). The value for “GTCTGTGATAATTTTGTTCTCTTCTTGTTGGGGTCTTGGGCGGAGTCACCTAGTGCAG” was 3920 fluorescence intensity (a.u.); that for “TCTAAATTGTTCATTGATTCTGTTATAGATTGCTTAAGCCCGGAGTCACCTAGTGCAG” was 38200 fluorescence intensity (a.u.). Take “TTTAAATTGTAATCCTACTTGAACTCTTCTTTATTTTCTTCGGAGTCACCTAGTGCAG”: the binding signal was 6760 fluorescence intensity (a.u.).

As for “CGCTAATCATAAACACTGCAAACAAATAAAGCACGCTGGACGGAGTCACCTAGTGCAG”, the binding signal is 10800 fluorescence intensity (a.u.). The value for “GGAATTTGCAATAATGGGATGGGCGAACGACGGGAATTGACGGAGTCACCTAGTGCAG” was 5620 fluorescence intensity (a.u.); that for “AACCAATAACTGAAGATCAACATCAGTCACAAGTATGGAACGGAGTCACCTAGTGCAG” was 8770 fluorescence intensity (a.u.); that for “ACACTCTTCAATCAAGGAGCAAATACAGGCTGTGGACTTGCGGAGTCACCTAGTGCAG” was 19200 fluorescence intensity (a.u.).

Take “AAATGACCAAAATAAAATTGATAGATCTCAATGAGTTCTACGGAGTCACCTAGTGCAG”: the binding signal is 7920 fluorescence intensity (a.u.). With “TATCTATTTAGATTTATTAACATTAATATGAATATAGGAACGGAGTCACCTAGTGCAG”, the binding signal was 5320 fluorescence intensity (a.u.). The value for “ATCCGTAATTAAATTACCAAACTGCCCCTCCTAGCCAAAGCGGAGTCACCTAGTGCAG” was 25900 fluorescence intensity (a.u.). As to “TACTAATTGTATTATGATAAAATCCATATCTATGCGGTTACGGAGTCACCTAGTGCAG”, the binding signal is 19300 fluorescence intensity (a.u.). The figure for “TTGATTGCAGATCAAATGCATGCAATAAGAATGGAGATGGCGGAGTCACCTAGTGCAG” is 19600 fluorescence intensity (a.u.); for “TTTTCCTTAACCAATCATCATTCCCTCATCCCATTAAATTCGGAGTCACCTAGTGCAG” it is 5060 fluorescence intensity (a.u.); for “TATATTTTAATTTATATGGATGATCCTTATAGCTATGGGTCGGAGTCACCTAGTGCAG” it is 8380 fluorescence intensity (a.u.). As for “TATATATATATATATATATATAAAAGTTACTTTTAGATTTCGGAGTCACCTAGTGCAG”, the binding signal was 4220 fluorescence intensity (a.u.). As to “TGATAATTAATCTATAGTTTTCTAATAGTTTTGTTATAAACGGAGTCACCTAGTGCAG”, the binding signal was 15900 fluorescence intensity (a.u.). The figure for “GTTGATAATTGGTTCGGATCCCCGCTGCTTCGTCGCAAATCGGAGTCACCTAGTGCAG” is 36600 fluorescence intensity (a.u.). The figure for “CATCACTAATCTACAATTAAGGGCTTGTTCAGATTGATGACGGAGTCACCTAGTGCAG” is 14100 fluorescence intensity (a.u.).

On to “GGCATTGACTGACTCCACTAGTCCTGTCAAGAGCGTGCATCGGAGTCACCTAGTGCAG”, for which the binding signal is 10600 fluorescence intensity (a.u.).

As to “CTTAATTAGCTAGGGTTGCATTGCTGCACTGCACTGGTGTCGGAGTCACCTAGTGCAG”, the binding signal is 29900 fluorescence intensity (a.u.).

Consider “ACTGTGCATGATTTGTCCCTAGAACTTTAGTTTAAGTATGCGGAGTCACCTAGTGCAG”, for which the binding signal was 5640 fluorescence intensity (a.u.). The value for “ATTCAAATTCCTAAATTTAACAGTAAAGTTTCCCATACACCGGAGTCACCTAGTGCAG” was 4760 fluorescence intensity (a.u.). The value for “CAATAAATTTGAATAGCAATTGGTATATGTCATATCTGGTCGGAGTCACCTAGTGCAG” was 14900 fluorescence intensity (a.u.).
